Measurements published in PMC10213050.
Substitutions are numbered along the chain they refer to. No constants are given. Whether binding was seen depends on the method and setting. For some assays here: In cells and extracts the contact can be indirect. Some results given as binding are weak or reduced against the parent protein; the word gives no strength. For some assays here: Sequences can lack the tags named with a protein. Blank lines part the entries; values can stand above or below the substance they belong to.

The chains behind the UniProt entries cited, without tags or fusion partners.
UniProt Q5VTR2: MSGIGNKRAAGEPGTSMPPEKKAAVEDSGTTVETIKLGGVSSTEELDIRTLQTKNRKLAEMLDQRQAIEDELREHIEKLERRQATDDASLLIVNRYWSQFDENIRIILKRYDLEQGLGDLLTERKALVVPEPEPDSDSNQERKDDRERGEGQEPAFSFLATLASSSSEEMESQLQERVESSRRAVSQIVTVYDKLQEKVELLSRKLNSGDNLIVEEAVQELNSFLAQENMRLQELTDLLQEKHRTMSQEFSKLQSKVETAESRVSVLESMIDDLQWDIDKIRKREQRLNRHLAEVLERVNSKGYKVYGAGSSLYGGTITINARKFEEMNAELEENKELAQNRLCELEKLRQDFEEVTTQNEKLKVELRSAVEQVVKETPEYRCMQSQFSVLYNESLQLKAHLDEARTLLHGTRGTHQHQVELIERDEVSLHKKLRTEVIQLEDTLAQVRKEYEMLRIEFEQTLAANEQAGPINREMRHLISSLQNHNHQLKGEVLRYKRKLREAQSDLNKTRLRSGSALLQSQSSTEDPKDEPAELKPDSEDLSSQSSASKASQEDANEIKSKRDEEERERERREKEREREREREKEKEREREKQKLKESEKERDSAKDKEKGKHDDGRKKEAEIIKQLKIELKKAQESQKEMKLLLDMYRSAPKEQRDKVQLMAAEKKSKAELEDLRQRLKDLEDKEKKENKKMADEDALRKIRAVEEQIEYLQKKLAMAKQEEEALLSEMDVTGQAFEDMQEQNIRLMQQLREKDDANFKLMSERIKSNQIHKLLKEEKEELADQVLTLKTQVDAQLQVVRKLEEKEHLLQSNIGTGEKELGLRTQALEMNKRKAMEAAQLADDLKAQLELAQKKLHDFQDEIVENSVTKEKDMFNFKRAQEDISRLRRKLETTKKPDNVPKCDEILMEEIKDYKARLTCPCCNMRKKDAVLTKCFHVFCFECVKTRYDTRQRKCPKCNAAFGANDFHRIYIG
UniProt Q06609: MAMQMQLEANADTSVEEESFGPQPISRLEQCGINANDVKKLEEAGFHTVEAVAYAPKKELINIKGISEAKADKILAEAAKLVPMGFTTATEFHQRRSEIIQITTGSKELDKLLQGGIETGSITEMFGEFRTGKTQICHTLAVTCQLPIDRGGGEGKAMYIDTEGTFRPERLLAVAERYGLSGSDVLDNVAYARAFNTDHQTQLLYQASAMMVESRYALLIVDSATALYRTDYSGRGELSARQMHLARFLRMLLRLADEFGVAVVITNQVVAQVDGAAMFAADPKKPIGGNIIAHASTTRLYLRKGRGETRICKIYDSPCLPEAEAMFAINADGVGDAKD
UniProt Q8NFZ0: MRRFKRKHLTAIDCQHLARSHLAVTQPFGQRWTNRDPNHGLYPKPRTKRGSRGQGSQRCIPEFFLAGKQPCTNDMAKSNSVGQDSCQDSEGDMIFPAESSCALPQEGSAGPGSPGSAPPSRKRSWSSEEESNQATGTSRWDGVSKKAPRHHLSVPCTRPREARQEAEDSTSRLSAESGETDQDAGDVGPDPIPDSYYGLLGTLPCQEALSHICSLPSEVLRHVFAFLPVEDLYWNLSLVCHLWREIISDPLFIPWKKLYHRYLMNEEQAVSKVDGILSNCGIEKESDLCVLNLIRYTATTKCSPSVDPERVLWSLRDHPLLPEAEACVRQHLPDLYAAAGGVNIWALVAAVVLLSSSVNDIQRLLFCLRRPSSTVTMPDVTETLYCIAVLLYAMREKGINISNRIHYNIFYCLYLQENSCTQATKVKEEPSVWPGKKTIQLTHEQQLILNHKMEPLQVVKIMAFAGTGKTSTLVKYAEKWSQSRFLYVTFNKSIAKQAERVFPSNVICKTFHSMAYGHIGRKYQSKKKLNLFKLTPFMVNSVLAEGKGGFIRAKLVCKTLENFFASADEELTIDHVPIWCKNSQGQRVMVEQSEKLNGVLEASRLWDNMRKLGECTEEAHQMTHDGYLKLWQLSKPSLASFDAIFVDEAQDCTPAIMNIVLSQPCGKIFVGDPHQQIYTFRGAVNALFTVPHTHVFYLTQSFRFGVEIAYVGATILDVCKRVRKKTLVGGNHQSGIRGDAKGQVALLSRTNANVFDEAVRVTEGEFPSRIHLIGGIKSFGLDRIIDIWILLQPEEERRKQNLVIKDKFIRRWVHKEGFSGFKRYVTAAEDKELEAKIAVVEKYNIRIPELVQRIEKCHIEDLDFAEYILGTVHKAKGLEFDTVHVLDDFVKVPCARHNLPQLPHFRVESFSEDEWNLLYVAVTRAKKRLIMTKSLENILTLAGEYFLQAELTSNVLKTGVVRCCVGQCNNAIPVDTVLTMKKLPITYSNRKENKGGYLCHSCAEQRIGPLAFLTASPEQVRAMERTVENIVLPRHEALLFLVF
UniProt P25454: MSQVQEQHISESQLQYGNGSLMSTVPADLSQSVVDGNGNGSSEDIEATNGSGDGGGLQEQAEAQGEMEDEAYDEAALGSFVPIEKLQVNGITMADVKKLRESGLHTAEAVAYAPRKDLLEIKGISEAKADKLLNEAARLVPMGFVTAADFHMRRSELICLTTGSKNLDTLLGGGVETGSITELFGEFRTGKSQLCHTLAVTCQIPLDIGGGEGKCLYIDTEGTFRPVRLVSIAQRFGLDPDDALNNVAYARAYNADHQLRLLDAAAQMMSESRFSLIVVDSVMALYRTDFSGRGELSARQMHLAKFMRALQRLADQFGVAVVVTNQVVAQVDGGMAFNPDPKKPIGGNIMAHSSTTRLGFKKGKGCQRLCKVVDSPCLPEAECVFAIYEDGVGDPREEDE

What was measured:
GST-RNF20 (human) = GST-RNF20 (human) (UniProt Q5VTR2); test: pull-down; GST-tagged Bre1 (WT, truncated or mutant) or GST-RNF20 on glutathione agarose beads, incubated with 6xHis-tagged Rad51, hRad51 or FBH1 at 4 °C for 4 h; wash 20 mM Tris-HCl pH 7.4, 200 mM NaCl; Western blot or Coomassie; both purified
[1] = molecular target: T1, GST-Bre1-EK2A (yeast (Saccharomyces cerevisiae)) (UniProt Q07457); test: as above
T1 sequence: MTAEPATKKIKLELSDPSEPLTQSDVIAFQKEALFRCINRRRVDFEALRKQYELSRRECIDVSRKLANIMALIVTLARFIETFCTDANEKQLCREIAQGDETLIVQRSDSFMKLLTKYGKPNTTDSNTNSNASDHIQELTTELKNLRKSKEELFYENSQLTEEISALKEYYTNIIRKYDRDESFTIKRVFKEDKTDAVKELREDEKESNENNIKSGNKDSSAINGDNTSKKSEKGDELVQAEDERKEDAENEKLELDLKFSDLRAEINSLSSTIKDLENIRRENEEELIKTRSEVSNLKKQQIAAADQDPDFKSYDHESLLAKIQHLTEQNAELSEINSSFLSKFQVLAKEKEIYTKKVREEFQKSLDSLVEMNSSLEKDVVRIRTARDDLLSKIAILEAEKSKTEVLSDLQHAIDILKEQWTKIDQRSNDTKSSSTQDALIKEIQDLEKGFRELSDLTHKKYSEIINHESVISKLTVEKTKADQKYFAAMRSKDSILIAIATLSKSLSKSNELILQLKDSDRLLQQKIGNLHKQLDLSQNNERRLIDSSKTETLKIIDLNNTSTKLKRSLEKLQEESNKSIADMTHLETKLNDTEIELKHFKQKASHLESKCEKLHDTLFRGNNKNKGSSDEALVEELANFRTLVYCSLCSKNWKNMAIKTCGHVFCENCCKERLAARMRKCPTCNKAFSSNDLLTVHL

[2] = molecular target: T2, GST-tagged truncated Bre1 1-496 aa (yeast (Saccharomyces cerevisiae)) (UniProt Q07457); test: as above
T2 sequence: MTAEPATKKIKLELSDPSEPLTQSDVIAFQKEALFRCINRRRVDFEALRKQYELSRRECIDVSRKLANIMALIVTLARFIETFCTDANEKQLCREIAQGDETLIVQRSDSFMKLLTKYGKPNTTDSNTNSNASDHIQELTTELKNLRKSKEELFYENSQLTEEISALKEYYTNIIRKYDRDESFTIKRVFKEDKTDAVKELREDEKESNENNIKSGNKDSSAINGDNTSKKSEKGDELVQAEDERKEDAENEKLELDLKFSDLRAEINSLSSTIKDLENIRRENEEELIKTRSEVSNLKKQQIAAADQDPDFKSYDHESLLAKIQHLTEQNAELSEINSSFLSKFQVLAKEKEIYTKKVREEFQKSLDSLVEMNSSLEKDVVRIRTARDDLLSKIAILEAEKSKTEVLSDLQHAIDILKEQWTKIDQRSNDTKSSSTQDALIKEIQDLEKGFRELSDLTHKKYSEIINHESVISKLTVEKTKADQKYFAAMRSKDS

FLAG-RNF20 (human) = FLAG-RNF20 (human) (UniProt Q5VTR2); test: co-IP; HEK293T cells co-transfected with FLAG-tagged and HA-tagged constructs; NETN buffer (100 mM NaCl, 0.5% Nonidet P-40); anti-FLAG antibody on protein G-sepharose, 16 h at 4 °C
[3] = molecular target: T3, Bre1-3xFLAG (yeast (Saccharomyces cerevisiae)) (UniProt Q07457); test: co-IP; yeast cell lysates, anti-HA or anti-FLAG antibody and protein G-agarose, 150 mM NaCl, 0.4% Nonidet P-40; cells untreated or treated with phleomycin or MMS; for Srs2-Bre1 also with benzonase treatment
T3 sequence: T1 sequence with A500E, A502K

[4] = molecular target: T4, bre1-EK2A-3xFLAG (yeast (Saccharomyces cerevisiae)) (UniProt Q07457); test: as above
T4 sequence: T1 sequence

[5] = molecular target: endogenous RNF20 (human (endogenous in HEK293T or Hela cells)) (UniProt Q5VTR2); test: co-IP; immunoprecipitation of endogenous proteins from human cells
[6] = molecular target: endogenous hRad51 (human (endogenous in HEK293T or Hela cells)) (UniProt Q06609); test: as above

- binding (FLAG-RNF20 (human)): binds
Substance: HA-FBH1 (from UniProt Q8NFZ0 1-1043) (enzyme)

- binding [3]: binds
- binding [4]: no binding
Substance: Rad51-3xHA (from UniProt P25454 1-400)

- binding [6]: binds
Substance: endogenous RNF20 (from UniProt Q5VTR2 1-975) (enzyme)

More lines, now with the values behind:

Substance: 6xHis-FBH1 (from UniProt Q8NFZ0 1-1043) (enzyme)
- binding (GST-RNF20 (human)): binds

Substance: 6xHis-Rad51 (from UniProt P25454 1-400)
- binding [1]: no binding
- binding [2]: no binding

Substance: endogenous FBH1 (from UniProt Q8NFZ0 1-1043) (enzyme)
- binding [5]: binds
